The source gives no read counts; variants with many changes may rest on few reads.
B1: LINE1-full (parent)
chain: UACGUAGGUGGUUUUCCCCUGAUAGUGCUAAGGGGGCCUGGAAGUUUGGACUGGGCAGAGCUCAACACAGCGUGGCAAAGUGGCUGUGGCUAGACUGCCUCUCUGGAUUCCUCGUCACUCAGCAGGGCAUCUCUGAGAGAAAUGCC

Variants of: B1
Experiment: self-cleavage, relative activity (ratio to wild type); higher = more cleavage; in vitro, sequencing; the parent is a self-cleaving ribozyme

Row | Variant | self-cleavage
1 | G11U U47C G80A U109A U115C C145G | 2.23
2 | U12C C18A U62A | 0.16
3 | G11A A141G A142C | 1
4 | U9G U47A A78G | 0.73
5 | U12C U20C C37G U47C U115A G122A A140U | 1.39
6 | U12C A22U A50G A59G U62A | 0
7 | U12C A78G U81C C111G | 0
8 | U12C U13C U47C U102C | 1.23
9 | U12C A79G C99U | 0.39
10 | G11A U26C A77G U132C A140G | 0.84
11 | U9C U115C U119A | 1.48
12 | U12A U20C A78G U81A U87C C99U U109C C110U G137A | 0.12
13 | U12C U26C C61U A141G | 0.07
14 | U12C A124U U132C | 2.33
15 | U9G U132C A142U | 0.59
16 | G10A A30G A42G A94G | 0
17 | U9G U39C U73C A140G | 1.02
18 | U12C U13C U26A | 0.96
19 | G11A A22G A24G A79G C95U | 0.3
20 | U12C G127A G135A | 1.72
21 | U12C U29A A79G | 0.84
22 | U12C A78U A124G | 1.89
23 | U12C U29C U47C U112C | 0
24 | U9C U115A U143C | 1.44

Row | Variant | self-cleavage
25 | U12C U20C A69G A117U A136G A142G | 0.79
26 | U12C U20G U96C | 0.41
27 | U12A U13C U104A | 0
28 | U12C U13C A22C U45A A129G | 1.81
29 | U12C G25A U104C A140G | 1.13
30 | G10U U26A A43G A57G A59G | 0
31 | U9G A57U U108C A121G | 0
32 | G11C U20C A79U U81A A142G | 2.45
33 | U12C A31G G32A U73A A142G | 1.87
34 | U12C U15C U20A C145A | 1.13
35 | U9G A59G U62A U85G | 0
36 | U12C A43G U45C C51A A67G U73A U112C | 0.71
37 | U12C U26C U73A | 1.55
38 | U12C U15A G40C A50G C51U | 0.67
39 | U12C A50G A59G G83A A94U | 0.21
40 | U12A G54A A77G | 1.6
41 | U9C U134G A141G | 1.95
42 | U12C U13A A65G U143C | 0.31
43 | U12C A59G U62A G72A | 0.09
44 | U12A A22G A57G | 0.97
45 | G10U G58U U73C U87C | 0.09
46 | G11A A64U U100A | 0.1
47 | G10A A31U G55U U109C | 0.13
48 | U9C U85C U134C | 0.44

Row | Variant | self-cleavage
49 | U12C C28U G53U U87A U132C | 0
50 | U12C A22U G48A U85C | 0.28
51 | U12C A77G G89A | 0.05
52 | U12C A59G U62C | 0.24
53 | G10A U12C U45A A142G C146U | 1.29
54 | U12C G97A A107G G139A | 0.13
55 | U12C G36A G122A A124G U130C | 1.43
56 | U12C U15A A22G | 1.06
57 | U12C U13C A67U U85A G126U A142U | 0.1
58 | U12C A31G G54U | 0.3
59 | U12C U39A A107G | 1.31
60 | U12C U15C A65G | 0.51
61 | U12C U20C U23A A24U U39C G58A C116U | 0.12
62 | G11A A78G A121C A129G | 0.67
63 | U12C A22G A31U U104C A138U A141G | 0
64 | U12C G21A U45C | 0.29
65 | G11A U29C A30U G34U | 0.54
66 | U12C A50G A69G | 1.1
67 | U9C U96C U102C | 0.79
68 | U12C U39A A59U C63U | 0.22
69 | U12C U15C U47A A64U C90U | 0.01
70 | G11A U14C U91C A142G | 0.4
71 | G10C U20C A43G U115A | 1.06
72 | G10A U29C U109C U132C | 1.28

Row | Variant | self-cleavage
73 | U12A A94C A107U G127A | 0.05
74 | G10U A24C U26C A31G U47A C110U | 0.92
75 | U12C U14C U62C A140G | 0.18
76 | G11A A50G U52A U73C | 2.12
77 | U12C A42G G54A | 0.95
78 | U12C A92G U100C | 0.22
79 | G11A G41U G58A | 0.03
80 | G11A U96C C111A | 0
81 | G10A A67U A69U A79G U87C U115C | 0
82 | U9C U112A A129G | 2.04
83 | U9C U134C U143C | 0.66
84 | U12C A78G U102C A129G | 0
85 | U12C U23C U26A A64G U87A | 0.77
86 | U12C A64G A138G | 0.38
87 | U12C U20C G40A | 1.31
88 | U12C A69G A117G | 0
89 | U12C U14G A42U G125U | 0.89
90 | U9G A67U G106A | 0.34
91 | U12A U45C A65U | 0.1
92 | U12C C51A A117U | 1.33
93 | U12C U13C G53A | 1.82
94 | U12C C38U A78C A142G | 1.88
95 | U12C A43G G83C U100C G144A | 1.1
96 | U12A A24U U26A U62C G106U | 0.09

Row | Variant | self-cleavage
97 | U12C U20C G32A | 1.23
98 | U9G U13C A64U A124G U132A | 0.62
99 | U12A G34A G125A A142G | 0.65
100 | U12C A57U C71G U91C U115C | 0.11
101 | U12C A43U U73C U130A | 0.93
102 | G11U U15C U81C | 1.02
103 | G11A A22G A94G U134A A140G | 0.1
104 | U12A A43G A124G | 1.59
105 | U12C U15C A64G G125A | 0.63
106 | U12A U100C U102C A142G | 2.36
107 | U12C A43G A138G | 1.23
108 | U12C C51A U52A U130A A142U | 1.24
109 | G10A U15C A77G A79G | 0.61
110 | U9G U46C G58U A59U A79G | 0.18
111 | U12A G53U A94G | 0
112 | U12C U26A A107G | 1.44
113 | U9G U39A U85A | 0.15
114 | U12C A42G A57G U81A U87C | 0
115 | U12C A77G A121C U134G | 2.22
116 | U12C A69U U73A U132C | 0.15
117 | G10U A92U U132A | 0.97
118 | U12C U14C A64G U102C U104A | 1.31
119 | G10U U119A A142G | 1.18
120 | U12C U14C A117U | 1.15

Row | Variant | self-cleavage
121 | U12A U14C G89A | 0
122 | U12C A78U U143C | 1.79
123 | U12A A65G U96A | 0.05
124 | U12C A121U A124U | 1.8
125 | U12C A121U A129U U130C | 1.43
126 | U12C G44A U96G A142G | 0.03
127 | U12C C17U U45C U52C A65G A138C | 0
128 | U12C U20C U39A A107G | 1.09
129 | U12C U26C U62A | 0.1
130 | U12C U26C U132A | 1.02
131 | G11A U47C U102C | 1.19
132 | U12C A30C U134C | 2.02
133 | G11A U46A A94G U96C | 0
134 | U9C U100C C128U | 1.54
135 | U9G U45C U96C | 0.51
136 | U12C A22G A50G G74A | 0.44
137 | U12C U15A A65G | 0.15
138 | U12C C90U A121G G127U | 0.04
139 | U12A A59U A78U A142G | 1.57
140 | U12C G83A U119C U134G | 1.51
141 | G11A U20C U26G U108C A142G | 1.63
142 | U12C A24G A59U | 0.43
143 | U12C U13C U39C U45C | 1.78
144 | U12C U15C U47C C95U A121G | 1.08

Row | Variant | self-cleavage
145 | U12A A79G U115C | 2.68
146 | G10U A31G A124G A129G | 1.74
147 | U12A U45A A124U A129G U130C | 2.04
148 | G10A U20C A138G | 1.65
149 | U12C A22G A136U | 0.84
150 | U12C U13C U52C A65G | 0
151 | U12C U29C U45C | 2.56
152 | U12C A65G G144A | 0.15
153 | U12C A78G A92G | 0.3
154 | G10U U26C A31U | 0.84
155 | U12C A69G U119C U134G | 1.31
156 | U12C C19U A30G U130C | 1.06
157 | U12C G27A U104C A138G | 1.63
158 | U12C C16U U20C U62A U100C | 0.28
159 | U12C A24G U104A | 0.79
160 | U12C A64G A77G G82A U85C A92U C146U | 0.46
161 | U12A A78G U104A U115A A124U | 1.27
162 | U12C A92G A129C A136G | 0
163 | U12A U23A U91C U96A | 0.05
164 | U9G U12G G41A A142G | 0.59
165 | G11A U15C A142G | 1.24
166 | U12C U20A G34A G60U A140G | 0.02
167 | U12C A57G A64U A78G | 0.21

Source: the RNAGym collection of RNA variant scans (doi:10.7554/elife.90254)
